From PubChem BioAssay AID651567 (National Center for Advancing Translational Sciences (NCATS), 2012) come the findings set out here.

Structures are written as SMILES. Among all 1,200 compounds or so, about 10 (0.8%) were called active. Inconclusive results (about 4%) are left out. Calls follow the shape of the dose curve; as a rule, active = well fitted inhibition curve with a large enough effect; inconclusive = small, poorly fitted or top-dose-only effect; inactive = no such curve, though single readings can be large or run the other way. Some of the results follow.
% is scaled to controls: 0 for no effect and ±100 for the full control effect.

The assay is described as follows: qHTS Assay to Find Inhibitors of Chronic Active B-Cell Receptor Signaling: Hit Validation in OCI-Ly3 Assay. As to conditions: OCI-Ly3 IkB-luciferase reporter, Chroma-Glo luminescence, 4 h; series mostly up to 46.1 µM; activity change, negative = inhibition: at the top concentration. An outline of the steps:
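Readout is dual-colour luminescence: IkB-alpha-luciferase fusion (green) against unfused luciferase (red), plus their ratio, scaled between basal cells and 10 uM MG-132. OCI-Ly3 cells, 0.5% FBS IMDM, compound with doxycycline (80ng/ml solution), 4 hrs at 37C; curves fitted and classed.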
In general terms: qHTS replaces the single test concentration by a dilution series.
For `COc1ccc(S(N)(=O)=O)cc1C(=O)OCCCOC(=O)c1cc(S(N)(=O)=O)ccc1OC`, the “activity change, negative = inhibition” value is inactive: 0.425%.

Regarding `O=C(Oc1c(CN2CCOCC2)cc(Cl)c2cccnc12)c1ccccc1F`, the “activity change, negative = inhibition” value is inactive: -7.82%.

With `COc1ccc(-c2ccc(CCC(=O)O)n2-c2ccccc2OC)cc1`, the “activity change, negative = inhibition” value was inactive: -0.144%.

In the case of `COc1ccc(/C=N\NC(=O)c2ccccc2F)cc1COc1ccc(F)cc1F`, the “activity change, negative = inhibition” value was inactive: -6.34%.

On to `CCN(CC)c1ccc(/C=N/N=C(N)N)c(O)c1`, for which the “activity change, negative = inhibition” value is inactive: -1.23%.

Take `C#CCOCCOCCOCCNc1nc(N2CCN(C(=O)[C@H](C(C)C)n3cc(CCO)nn3)CC2)nc(N2CCN(C(=O)[C@H]([C@@H](C)CC)n3cc(CCCN=C(N)N)nn3)CC2)n1`: the “activity change, negative = inhibition” value was inactive: -0.271%.

As for `Cc1cc(C)n(-c2nc3ccccc3c(=O)n2OCC#N)n1`, the “activity change, negative = inhibition” value was inactive: 27.8%.

Turning to `FC(F)(F)c1nnc2ccc(Cl)nn12`, the “activity change, negative = inhibition” value was inactive: 0.0223%.

For the compound `Cc1csc(NC(=S)Nc2cccc(Cl)c2)n1`, the “activity change, negative = inhibition” value is inactive: 37.2%.

For the compound `CC[C@]1(O)C[C@@H]2CN(CCc3c([nH]c4ccccc34)[C@@](C(=O)OC)(c3cc4c(cc3OC)N(C)[C@H]3[C@@](O)(C(=O)OC)[C@H](OC(C)=O)[C@]5(CC)C=CCN6CC[C@]43[C@@H]65)C2)C1`, the “activity change, negative = inhibition” value was inactive: -5.15%.

`CCOC(=O)Nc1ccc2nc(N3CCCCCC3)sc2c1`: the “activity change, negative = inhibition” value was inactive: 0.164%.

For the compound `COc1cccc(Nc2sc(C(=O)c3ccc(Cl)cc3)c(N)c2C(=O)NCc2ccc(C)cc2)c1`, the “activity change, negative = inhibition” value was inactive: -1.56%.

Turning to `CCN(c1ccccc1)S(=O)(=O)c1ccc(C(=O)NNC(=O)c2ccccc2F)cc1`, the “activity change, negative = inhibition” value is inactive: -0.453%.

On to `CN(C)c1ccc(-c2nn3c(-c4ccccc4Cl)nnc3s2)cc1`, for which the “activity change, negative = inhibition” value was inactive: -2.19%.

As for `O=C(/C=C/c1cccs1)c1cc(Br)ccc1OC(=O)N1CCOCC1`, the “activity change, negative = inhibition” value was inactive: -3.13%.

Consider `CC(=O)c1ccsc1-c1c(C)cc2oc(=O)cc(-c3ccccc3)c2c1C`, for which the “activity change, negative = inhibition” value was inactive: -1.81%.

For `COC(=O)c1[nH]c2c(c1C)C(=O)CC(c1ccccc1)C2` (stereo unspecified), the “activity change, negative = inhibition” value is inactive: -1.68%.

For the compound `Cc1noc(C)c1COc1ccc(C(=O)NCc2cccs2)cc1`, the “activity change, negative = inhibition” value is inactive: -1.3%.

With `COc1ccc(/C=C/C(=O)c2cc(F)ccc2OC(=O)c2ccc(OC)c(OC)c2)cc1OC`, the “activity change, negative = inhibition” value is inactive: -5.26%.

As to `CCc1ccc(CCC(=O)Nc2ncc(Cc3ccccc3Cl)s2)o1`, the “activity change, negative = inhibition” value is inactive: -0.724%.

In the case of `CCCNS(=O)(=O)c1cccc(C(=O)OCc2cc(=O)oc3cc(OC)ccc23)c1`, the “activity change, negative = inhibition” value was inactive: -16.4%.

As for `Cc1ccc(NC(=O)c2ccco2)c([N+](=O)[O-])c1`, the “activity change, negative = inhibition” value was inactive: 0.0255%.

In the case of `Nc1ccc(C(=O)n2c3ccccc3c3ccccc32)cc1`, the “activity change, negative = inhibition” value was inactive: -4.18%.

Consider `COc1ccc(S(=O)(=O)Nc2cc3c(C(C)=O)c(C)oc3c3ccccc23)cc1`, for which the “activity change, negative = inhibition” value was inactive: -4.89%.

As for `COc1ccc(-c2c/c(=N\c3nc(-c4ccccc4)c(C)s3)c3ccccc3o2)cc1O`, the “activity change, negative = inhibition” value is inactive: -2.11%.

For `COc1ccc(C)cc1NS(=O)(=O)c1ccc(-c2cnc(C3CC3)o2)cc1`, the “activity change, negative = inhibition” value is inactive: -3.37%.

In the case of `COc1ccc(OC)c(C(=O)COC(=O)c2[nH]c(C)c(C(C)=O)c2C)c1`, the “activity change, negative = inhibition” value is inactive: -2.83%.

Take `Cc1ccc2[nH]c(C(=O)NN=C3CCCCC3)c(-c3ccccc3)c2c1`: the “activity change, negative = inhibition” value was inactive: -1.32%.

On to `COc1ccc(/C=N/NC(=O)c2[nH]c3ccc(Br)cc3c2-c2ccccc2)cc1`, for which the “activity change, negative = inhibition” value was inactive: -4.11%.

For `Cc1cnn(CCC(=O)NNC(=S)NCC(C)C)c1`, the “activity change, negative = inhibition” value was inactive: -0.0233%.

As to `CCCn1nc(Oc2nc(N(C)C)nc(N(C)C)n2)ccc1=O`, the “activity change, negative = inhibition” value is inactive: -1.24%.

`CCOCCOC(=O)c1[nH]c2c(c1C)C(=O)CC(c1cccs1)C2` (stereo unspecified): the “activity change, negative = inhibition” value was inactive: -0.135%.

As for `CC1CCCN(c2ccc([N+](=O)[O-])cc2C(=O)c2ccccc2)C1` (stereo unspecified), the “activity change, negative = inhibition” value was inactive: -3.9%.

Take `COc1ccccc1CNC(=O)CSc1ccc(C)cc1`: the “activity change, negative = inhibition” value was inactive: -0.623%.

In the case of `COc1ccc(C(=O)n2c(-c3ccco3)nc3ccccc32)cc1`, the “activity change, negative = inhibition” value was inactive: -2.89%.

Regarding `COc1cc(OC)c2c(-c3cccc(-c4ccc(O)cc4)c3)cc(=O)oc2c1`, the “activity change, negative = inhibition” value is inactive: 2.26%.

With `Cn1c(=O)n(Cc2ccccc2Br)c2ccccc21`, the “activity change, negative = inhibition” value is inactive: -0.348%.

`O=C(Nc1nc2ccc(F)cc2s1)c1ccccn1`: the “activity change, negative = inhibition” value was inactive: 14.8%.

For `COc1cc(C(=O)N/N=C(\C)c2ccc3c(c2)OCO3)cc(OC)c1OC`, the “activity change, negative = inhibition” value is inactive: -2.99%.

In the case of `O=C(COc1ccccc1-c1ccccc1)NN=C1CCCC1`, the “activity change, negative = inhibition” value was inactive: -0.665%.

As to `CSc1nc(N(C)NC(=O)c2ccc(Cl)cc2)c2ccccc2n1`, the “activity change, negative = inhibition” value is inactive: -2.95%.

For the compound `Cc1ccc(COC(=O)c2cc([N+](=O)[O-])ccc2N2CCOCC2)cc1`, the “activity change, negative = inhibition” value was inactive: -1.34%.

As to `Cc1ccccc1NC(=S)c1ccc2ccccc2n1`, the “activity change, negative = inhibition” value was inactive: -1.45%.

As for `CCOc1ccc(N(CC(=O)Nc2ccccc2OC)S(=O)(=O)c2ccccc2)cc1`, the “activity change, negative = inhibition” value is inactive: -3.72%.

In the case of `COc1ccc(NS(=O)(=O)c2cc(NC(=O)CNC(=O)c3cccc(OC)c3)ccc2C)cc1`, the “activity change, negative = inhibition” value was inactive: -3.48%.

For the compound `CCOc1ccc(C(=O)c2cc([N+](=O)[O-])ccc2N2CCOCC2)cc1`, the “activity change, negative = inhibition” value is inactive: -3.09%.

Turning to `O=C(NN=C1CCCC1)c1[nH]c2ccc(Cl)cc2c1-c1ccccc1`, the “activity change, negative = inhibition” value was inactive: -2.63%.

Consider `COc1cc2c(c(OC)c1OC)-c1ccc(OC)c(=O)cc1[C@@H](NC(C)=O)CC2`, for which the “activity change, negative = inhibition” value is inactive: -2.3%.

`ClC(Cl)(Cl)c1nc2ccccc2n2nncc12`: the “activity change, negative = inhibition” value is inactive: 18%.

With `CCOC(=O)N1CCC(NC(=O)c2ccc3c(c2)N=C(C)c2c(C)ccc(C)c2S3)CC1`, the “activity change, negative = inhibition” value is inactive: -7.89%.

With `O=[N+]([O-])c1cc(O)c2ncccc2c1`, the “activity change, negative = inhibition” value is inactive: -2.41%.
